# According to PubChem BioAssay AID463173 (ICCB-Longwood Screening Facility, Harvard Medical School, 2010):
# Screen size: about 52,000 compounds; about 1,700 (3.3%) were called active. Rule as the data show it: active = survival mostly below about 52% (no sharp cut-off); inactive = mostly above about 56%. Some of the results follow.
# Test system: Wild type
# Assay: growth inhibition of S. aureus wild type versus tarO mutant, primary screen, teichoic acid synthesis inhibitors, RN4220, OD600 (AID 463173)
# Details: S. aureus RN4220 wild type/DeltatarO growth, OD600, 18 h, stronger effect = lower value, screened at 18.75 µg/mL (by protocol)
row,Compound,survival
1,COc1cccc2c1cc1c(=O)n(CC(=O)NCCCN3CCN(C)CC3)nc(C)n12,inactive: 88%
2,COc1ccc(OCCCn2c(C)nc3cc(C)c(C)cc32)cc1,inactive: 67%
3,Cn1nnnc1SCCCNCc1cc(Cl)ccc1OCc1ccccc1,inactive: 84%
4,O=C1Nc2c(c(=O)[nH]c(=O)n2-c2ccc(F)cc2)C1(NS(=O)(=O)c1ccc(Cl)cc1)C(F)(F)F (stereo not drawn),inactive: 67%
5,COC(=O)c1ccc(OCC2c3cc(OC)c(OC)cc3CCN2C(=O)Cc2ccc(OC)c(OC)c2)cc1 (stereo not drawn),inactive: 79%
6,CC(C)c1nn2c(=O)cc(COC(=O)c3ccc4c(c3)OCO4)nc2s1,inactive: 69%
7,CC(=O)N1CCc2c(sc3c2c(=O)n(-c2ccccc2)c(=O)n3CC(=O)c2ccc(F)cc2)C1,inactive: 91%
8,COc1cc(C(=O)Nc2nnc(CC(C)(C)C)s2)cc(OC)c1OC,inactive: 106%
9,CCc1ccc(NC(=O)C2CCCN2S(=O)(=O)c2cccc3nsnc23)cc1 (stereo not drawn),inactive: 116%
10,Cc1cn2c(=O)c(S(=O)(=O)NCCc3ccc(Cl)cc3)c(C)nc2s1,inactive: 88%
11,COc1ccc(-c2nc3sc(CCNC(=O)c4ccc(C(C)(C)C)cc4)c(C)n3n2)cc1,inactive: 127%
12,CCOc1ccccc1C(=O)Nc1cc2c(cc1C)n(C)c(=O)c(=O)n2C,inactive: 57%
13,CCOc1ccc(C(=O)Nc2ccc(Cl)c(-c3nc4cc(C)cc(C)c4o3)c2)cc1,inactive: 83%
14,CCc1ccc2occ(CC(=O)NCc3ccccc3)c2c1,inactive: 122%
15,CC(C)c1ccc(NC(=O)c2cc(S(=O)(=O)NCCC3=CCCCC3)ccc2F)cc1,inactive: 78%
16,COc1ccc(NC(=O)Cc2ccc(NC(=O)N3CCCCc4ccccc43)cc2)c(OC)c1,inactive: 60%
17,CCN(CC)CCNC(=O)Cn1cnc2sc(C)c(S(=O)(=O)N3CCC(C)CC3)c2c1=O,inactive: 79%
18,CCOC(=O)C1CCC(CN(Cc2ccc(OC)cc2)S(=O)(=O)c2ccc(F)c(C(=O)Nc3cc(Cl)ccc3OC)c2)CC1 (stereo not drawn),inactive: 75%
19,Nc1nc(OC(C(F)(F)F)C(F)(F)F)nc(OC(C(F)(F)F)C(F)(F)F)n1,inactive: 66%
20,COc1ccc(CNC(=O)CN(C)S(=O)(=O)c2ccc3[nH]c4c(c3c2)CCCC4)cc1,inactive: 67%
21,Cn1cc(-c2cc3n(n2)CCC(=O)N3CCCC(=O)NCc2ccccc2)c2ccccc21,inactive: 76%
22,Cc1ccc(CN2C(=O)N(c3ccc(C)c(Cl)c3)S(=O)(=O)c3ccccc32)cc1,inactive: 75%

row,Compound,survival
1,Cc1ccc(NC(=O)C2CCN(S(=O)(=O)c3c(C)noc3C)CC2)cc1C,inactive: 85%
2,Cc1ccc(NC(=O)C(C)Sc2n[nH]c(-c3ccccc3O)n2)cc1 (stereo not drawn),inactive: 83%
3,COc1cccc(NC(=O)CN2C(=O)C3(SCC(=O)N3c3cc(C)cc(C)c3)c3ccccc32)c1 (stereo not drawn),inactive: 73%
4,COC(=O)c1cc2oc(C)cc2n1Cc1ccc(Cl)cc1,inactive: 72%
5,N#Cc1ccc(NC(=O)COCc2cc(-c3ccc(F)cc3)on2)cc1,inactive: 63%
6,O=C(Nc1ccc(Cl)cc1C(F)(F)F)c1cc(S(=O)(=O)NCc2ccccc2)ccc1F,inactive: 134%
7,CCc1ccc(CNC(=O)c2ccc(CS(=O)(=O)Cc3ccccc3C)o2)cc1,inactive: 71%
8,CCOc1ccc(CNC(=O)c2cnc(SC)nc2C)cc1,inactive: 94%
9,COC(=O)c1c(-c2cccs2)csc1NC(=O)COc1ccc(C(C)C)cc1,inactive: 73%
10,CCOC(=O)C1CCN(C(=O)c2nn(-c3ccc(C)cc3)c(=O)n(C)c2=O)CC1,inactive: 66%
11,COc1ccc(CNC(=O)CCS(=O)(=O)c2ccc3c(c2)CC(C)N3C(=O)C2CC2)cc1 (stereo not drawn),inactive: 76%
12,CCN(CC)C(=O)C1CCN(C(=O)c2cnn(-c3ccccc3)c2-n2cccc2)CC1,inactive: 75%
13,CCOC(=O)CSc1nc2ccccc2n2c(C)nnc12,inactive: 79%
14,CC1=C(C(=O)OC2CCCC2)C(c2cccc(Cl)c2Cl)CC(=O)N1 (stereo not drawn),inactive: 90%
15,CCOc1ccc(-n2ccnc2SCC(=O)Nc2ccc(OC)cc2OC)cc1,inactive: 74%
16,Cc1ccc(Cl)cc1N1CCN(C(=O)c2cn(C)c3ccc(S(=O)(=O)N4CCCC4)cc3c2=O)CC1,inactive: 138%
17,CCC1Oc2ccccc2N(CC(=O)NCc2ccc(C)cc2)C1=O (stereo not drawn),inactive: 77%
18,O=C(Cn1c(=O)n(-c2ccccc2)c(=O)c2c3c(sc21)CCCC3)Nc1ccc(F)cc1,inactive: 88%
19,COc1ccccc1N1CCN(C(=O)c2cc3c(=O)n(Cc4cccnc4)ccc3nc2C)CC1,inactive: 81%
20,Cc1ccccc1OCC(=O)Nc1nnc(S(=O)(=O)N(C)c2ccccc2)s1,inactive: 79%
21,O=C(CC(=O)Nn1cnnc1)Nn1cnnc1,inactive: 109%
22,COc1ccc(Br)cc1CNC(=O)c1cc2c(=O)n(C)c3ccccc3c2s1,inactive: 84%

row,Compound,survival
1,Cc1cccc(CCNC(=O)c2nc(-c3ccc(Cl)cc3)n3c2CCCCC3)c1,inactive: 72%
2,CCN1CCN(c2ncc3c(n2)CCN(Cc2ccc(C)s2)C3)CC1,inactive: 57%
3,CC(C)CC(=O)N(Cc1ccccc1)S(=O)(=O)c1ccc2c(c1)oc(=O)n2C,inactive: 110%
4,CCOc1ccc(C(=O)OCc2cc(=O)n3nc(C(C)C)sc3n2)cc1,inactive: 72%
5,CC(=O)c1ccc(NC(=O)COc2ccccc2-c2nc(C)no2)cc1,inactive: 109%
6,CCn1c2c(c(=O)n3ncc(C(=O)Nc4ccc(F)c(Cl)c4)c13)CN(Cc1ccc(OC)cc1)CC2,active: -1%
7,CC(=O)c1cc(-c2ccccc2)n(CC(=O)Nc2ccc(C)cc2C)c1C,inactive: 72%
8,Nc1nonc1-c1nc2ccccc2n1CC(=O)Nc1ccc(F)cc1,inactive: 135%
9,CC(=O)Nc1cc(C(C)(C)C)nn1C,inactive: 93%
10,Cc1ccc(S(=O)(=O)c2cn(CC(=O)Nc3ccccc3)c3cc4c(cc3c2=O)OCO4)cc1,inactive: 68%
11,Cc1ccc(-c2nc(CS(=O)CC(=O)O)c(C)o2)cc1 (stereo not drawn),inactive: 77%
12,CCOc1ccccc1NC(=O)NC(CC)c1c(-n2cccc2)sc2c1CCN(C)C2 (stereo not drawn),inactive: 69%
13,Cc1cccc(N2CCN(C(=O)c3ccc4c(c3)CCN4S(=O)(=O)c3ccccc3)CC2)c1C,inactive: 85%
14,CCc1ccc(Nc2nc3ccccc3c3nnc(C)n23)cc1,inactive: 81%
15,CCc1ccccc1NC(=O)CSc1nccn1C,inactive: 77%
16,CCc1ccc(S(=O)(=O)c2nnn3c2nc(NCCC(C)C)c2cc(Cl)ccc23)cc1,inactive: 78%
17,CCOC(=O)c1cc(OC(=O)c2cc(Cl)ccc2OC)n(-c2ccccc2)n1,inactive: 77%
18,O=C(COc1ccc(Cl)cc1Cl)Nc1ccc(C(=O)OC2CCCCC2)cc1,inactive: 78%
19,Cn1nc(C(=O)Nc2cccc(C(F)(F)F)c2)c2c1-c1ccccc1S(=O)(=O)C2,inactive: 91%
20,CCCN(CCC)S(=O)(=O)c1ccc(C(=O)N2CCn3c4c(c5cc(C)ccc53)CCCC42)cc1 (stereo not drawn),inactive: 82%
21,CC(=O)c1ccc(OC(=O)c2c(-c3ccccc3Cl)noc2C)cc1,inactive: 56%
22,COc1ccc2c(c1)c(CC(=O)Nc1cc(C)c(OC)c(C)c1)c(C)n2C(=O)c1ccc(Cl)cc1,inactive: 87%

row,Compound,survival
1,Cn1c(SCC(=O)Nc2ccccc2F)nc2c([nH]c3ccccc32)c1=O,inactive: 111%
2,COc1ccccc1Nc1ncnc2c1nc1n2CCCCC1,inactive: 133%
3,CCOc1ccc(NS(=O)(=O)c2ccc3[nH]cc(C(=O)NCCc4ccccc4)c(=O)c3c2)cc1,inactive: 63%
4,Cc1occc1C(=O)Nc1ccc2ccccc2c1,inactive: 141%
5,Cn1c(=O)nc2n(-c3ccc(Br)cc3)c3cccc(Cl)c3cc-2c1=O,inactive: 84%
6,CC(C)(C)OC(=O)N1CCC(c2c(C(=O)NCc3ccccn3)cnn2-c2ccccc2Cl)CC1,active: -6%
7,Cc1ccc(C)c(N2CCN(S(=O)(=O)c3ccc(C4CCCCC4)cc3)CC2)c1,inactive: 64%
8,CCCc1noc(-c2ccc(NCc3ccccc3OC)c([N+](=O)[O-])c2)n1,inactive: 79%
9,Cc1ccc(Nc2c(-c3cccc(Cl)c3)nc3cccc(C)n23)cc1,inactive: 22%
10,CCC(=O)N1c2ccccc2CC1C(=O)NCCN1CCN(c2ccccc2F)CC1 (stereo not drawn),inactive: 71%
11,Cc1ccc(NC(=O)CSc2nc(=O)n(CCN3CCOCC3)c3c2CCC3)cc1Cl,inactive: 66%
12,CCOC(=O)C1=C(C)NC(=S)NC1c1ccc(OCC(=O)N2CCCCC2)c(OC)c1 (stereo not drawn),inactive: 120%
13,Cc1cc(-c2ccc(C)c(S(=O)(=O)NCCc3ccccc3)c2)on1,inactive: 71%
14,COc1cccc(CNC(=O)C2CCN(c3ncnc4c3nc3n4CCCCC3)CC2)c1,inactive: 117%
15,O=C(Nc1cc(-c2nc3ccccc3o2)ccc1Cl)c1cc([N+](=O)[O-])ccc1N1CCOCC1,inactive: 61%
16,CC(C)c1ccc(NC(=O)CSC2=Nc3ccccc3C3=NC(CC(=O)NCCc4ccccc4)C(=O)N23)cc1 (stereo not drawn),inactive: 71%
17,Cc1[nH]c2ccccc2c1SCCNC(=O)c1ccc(F)cc1,inactive: 64%
18,CCC(=O)Nc1cccc(-c2nc3ccccc3[nH]2)c1C,inactive: 104%
19,COc1ccc(Cl)cc1NC(=O)c1c(NCc2cccs2)sc2c1CCC(C)C2 (stereo not drawn),inactive: 74%
20,CCOc1ccccc1NC(=O)CSc1nc(-c2cccs2)cc(C(F)(F)F)n1,inactive: 83%
21,Cn1cc(-c2cc3n(n2)CCC(=O)N3CC(=O)NCc2ccccc2)c2ccccc21,inactive: 73%
22,CCOC(=O)C1CCCN(C(=O)c2ccc(OCC)cc2)C1 (stereo not drawn),inactive: 117%
